Consider nine compounds from the antibiotic and cytotoxicity screens of Wong et al. (2023).

This is one part of the list.

In this assay the test system is HepG2. Put plainly: cytotoxicity call (relative viability < 0.9). To be noted: 10 µM.
Consider `CC(C)CC#Cc1ccc2c(c1)O[C@H](CN(C)C(=O)c1cccnc1)[C@@H](C)CN([C@H](C)CO)S2(=O)=O`, for which the cytotoxicity call is “inactive”.
Regarding `O=C1NN=COc2ccccc21`, the cytotoxicity call was “inactive”.
The result for `COc1ccc(S(=O)(=O)N(C)C[C@@H]2OCCCC[C@H](C)Oc3ccc(NS(C)(=O)=O)cc3C(=O)N([C@@H](C)CO)C[C@H]2C)cc1` reads “inactive”; that for `COc1cccc(S(=O)(=O)N2C[C@H](O)COC[C@H]3O[C@H](CC(=O)N4CCOCC4)CC[C@@H]32)c1`, “inactive”; that for `O=C(NCO)c1cccnc1`, “inactive”.
The same measure for `C[C@H](CO)N1C[C@H](C)[C@H](CN(C)C(=O)Nc2ccc(C(C)(C)C)cc2)OCc2cn(nn2)CCCC1=O`: “inactive”; for `COc1ccccc1-c1ccc2c(c1)O[C@H](CN(C)C(=O)c1ccncc1)[C@@H](C)CN([C@H](C)CO)S2(=O)=O`: “inactive”.
The same measure for `O=C(C[C@@H]1C=C[C@H](NS(=O)(=O)c2ccccc2)[C@@H](CO)O1)NCc1ccncn1`: “inactive”; for `C[C@H](NC(=O)N(C)C[C@H]1OCc2ccccc2-c2ccccc2C(=O)N([C@@H](C)CO)C[C@@H]1C)c1ccccc1`: “inactive”.
